# Reference: the BET-seq Pho4 binding data (Le et al. 2018)
# The other results are listed elsewhere or left out. The energies were worked out here from pooled read counts, against the library average; single values are noisy.
# Molecular target: T1, Pho4 (S. cerevisiae) (UniProt P07270)
# T1 sequence: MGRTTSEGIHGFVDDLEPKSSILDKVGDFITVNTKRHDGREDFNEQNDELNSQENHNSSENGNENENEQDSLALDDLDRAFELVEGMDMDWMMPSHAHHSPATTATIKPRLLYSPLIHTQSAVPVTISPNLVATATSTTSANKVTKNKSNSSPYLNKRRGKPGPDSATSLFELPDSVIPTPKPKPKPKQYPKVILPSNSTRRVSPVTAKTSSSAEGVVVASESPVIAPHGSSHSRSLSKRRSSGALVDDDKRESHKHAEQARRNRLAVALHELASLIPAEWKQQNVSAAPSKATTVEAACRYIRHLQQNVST
# Assay: relative binding free energy (BET-seq); higher = weaker binding
# Details: reference: library average
row,Sequence,relative binding free energy
1,TTCGACACGTGTGTTG,0.06 kcal/mol
2,TGGAGCACGTGGTAGT,-0.09 kcal/mol
3,TTGTCCACGTGGGTAG,0.05 kcal/mol
4,TCTATCACGTGTTGTT,0.22 kcal/mol
5,TTAAGCACGTGTTTCG,-0.25 kcal/mol
6,ATAGTCACGTGATGAG,0.13 kcal/mol
7,AGAGCCACGTGTTGTT,0.02 kcal/mol
8,TACGGCACGTGGTAGT,-0.29 kcal/mol
9,GTTAGCACGTGGCATA,0.01 kcal/mol
10,CAAAGCACGTGGTTGG,-0.09 kcal/mol
11,TGTGGCACGTGCCGGT,-0.21 kcal/mol
12,TGGAGCACGTGGCCGG,-0.24 kcal/mol
13,CTAGGCACGTGGGCGG,-0.28 kcal/mol
14,GAGGGCACGTGGGGGC,-0.18 kcal/mol
15,GGTTTCACGTGGGTGT,0.25 kcal/mol
16,GTACGCACGTGTGTCG,-0.03 kcal/mol
17,TGTAGCACGTGTGATG,0.1 kcal/mol
18,ATTAGCACGTGTATGG,-0.06 kcal/mol
19,AGGTACACGTGGCGGG,0.04 kcal/mol
20,TTAATCACGTGTGCGG,0.11 kcal/mol
21,GGGGTCACGTGCCTGG,0 kcal/mol
22,TGTTTCACGTGTATAT,0.32 kcal/mol
23,GTCGGCACGTGTTTAG,0 kcal/mol

row,Sequence,relative binding free energy
1,AGTCTCACGTGGTAGG,0.17 kcal/mol
2,GGTTGCACGTGCAATT,0.03 kcal/mol
3,AATAACACGTGATTGG,0.09 kcal/mol
4,TGATGCACGTGGAAGG,0.13 kcal/mol
5,GATAGCACGTGCTGGG,-0.08 kcal/mol
6,AGGGACACGTGGTCGA,-0.01 kcal/mol
7,TGTTCCACGTGTCGAT,0.22 kcal/mol
8,AGTACCACGTGATGTT,0.09 kcal/mol
9,TGGTTCACGTGTTAAT,0.31 kcal/mol
10,ATTGTCACGTGAATGA,0.26 kcal/mol
11,GTGTTCACGTGGGATC,0.32 kcal/mol
12,GAGTTCACGTGGCGTT,0.33 kcal/mol
13,GACTGCACGTGGGCTG,0.06 kcal/mol
14,GTGGTCACGTGTGTGA,0.18 kcal/mol
15,GTTTACACGTGTGTAT,0.1 kcal/mol
16,TGGTTCACGTGGCTTC,0.26 kcal/mol
17,TCTTGCACGTGTATGG,-0.03 kcal/mol
18,AATGTCACGTGCTTGG,-0.06 kcal/mol
19,AGTGACACGTGGGAAG,-0.12 kcal/mol
20,TGGTGCACGTGCAGCG,0.08 kcal/mol
21,GGTTACACGTGAGATT,0.24 kcal/mol
22,GTATTCACGTGTTGTC,0.17 kcal/mol
23,TTGTCCACGTGGTGCG,-0.04 kcal/mol

row,Sequence,relative binding free energy
1,CGAAGCACGTGTGGGG,-0.04 kcal/mol
2,TTTAGCACGTGAGAAT,0.09 kcal/mol
3,TCCGTCACGTGGGGCG,0.01 kcal/mol
4,ATTATCACGTGTGTGG,0.16 kcal/mol
5,AAGGTCACGTGGAGAA,0.16 kcal/mol
6,GAAGTCACGTGTGGTT,0.32 kcal/mol
7,TTTTTCACGTGTTATA,0.22 kcal/mol
8,GGGCTCACGTGAGTAG,0.38 kcal/mol
9,ACGGGCACGTGTAGGT,-0.07 kcal/mol
10,GTGTACACGTGTTTGA,0.1 kcal/mol
11,AATGTCACGTGTGCGA,0.18 kcal/mol
12,AAAAACACGTGGTAGG,0 kcal/mol
13,AAGGGCACGTGTGTTA,-0.19 kcal/mol
14,TCTTTCACGTGTGCAG,0.26 kcal/mol
15,CATGGCACGTGGTGCA,-0.2 kcal/mol
16,AAGAACACGTGGGTGT,-0.11 kcal/mol
17,CGGATCACGTGCTGGG,0.06 kcal/mol
18,CCAGTCACGTGGTGTG,-0.08 kcal/mol
19,TTTAACACGTGGTGGA,-0.12 kcal/mol
20,GTGTCCACGTGGATGG,-0.02 kcal/mol
21,GTATCCACGTGATTTG,0.22 kcal/mol
22,TTTATCACGTGTAAGG,0.22 kcal/mol
23,TCTGTCACGTGGTGTT,0.03 kcal/mol

row,Sequence,relative binding free energy
1,CAGTGCACGTGTATGG,0.12 kcal/mol
2,GCTTGCACGTGGGTAG,-0.03 kcal/mol
3,CGTGTCACGTGGAATT,0.23 kcal/mol
4,TGAGACACGTGTATAT,0.11 kcal/mol
5,AATTACACGTGGGTTA,0.08 kcal/mol
6,AGTAACACGTGTAAGG,0.2 kcal/mol
7,CTTGACACGTGGGATA,0.02 kcal/mol
8,TAGATCACGTGTCTTT,0.2 kcal/mol
9,GCAGTCACGTGAGTTG,0.21 kcal/mol
10,ATATACACGTGTGTTG,-0.07 kcal/mol
11,TCAGTCACGTGAGGGA,0.21 kcal/mol
12,TTAGTCACGTGAACGT,0.16 kcal/mol
13,ATGGTCACGTGATGAG,0.25 kcal/mol
14,TGAATCACGTGTATGT,0.06 kcal/mol
15,GGGAGCACGTGTTTAT,-0.16 kcal/mol
16,ATCGGCACGTGGCATG,-0.18 kcal/mol
17,TTATACACGTGGAATA,0.08 kcal/mol
18,GGGGGCACGTGGGGTT,-0.13 kcal/mol
19,GTCTTCACGTGATTAA,0.47 kcal/mol
20,GTTGTCACGTGAGGTG,0.16 kcal/mol
21,GTATACACGTGTGTAT,-0.02 kcal/mol
22,GGGTGCACGTGAGGCA,0.19 kcal/mol
23,AGGAGCACGTGGGAGT,-0.12 kcal/mol

row,Sequence,relative binding free energy
1,CTTTGCACGTGATGGA,0.07 kcal/mol
2,TTGCTCACGTGGCGGG,0.2 kcal/mol
3,CTTGGCACGTGTCTTT,-0.09 kcal/mol
4,TGTTTCACGTGCTTTA,0.17 kcal/mol
5,TAAGTCACGTGAGGTG,0.27 kcal/mol
6,TTTTTCACGTGGGAAA,0.17 kcal/mol
7,CGTTGCACGTGTTGGT,0.04 kcal/mol
8,GGTACCACGTGCTGGG,-0.14 kcal/mol
9,TTAGACACGTGTACGT,0.03 kcal/mol
10,GGTTACACGTGGTGAC,0.13 kcal/mol
11,AGTTGCACGTGGGGTC,-0.09 kcal/mol
12,GCTTTCACGTGGTTTT,0.42 kcal/mol
13,CGGATCACGTGAGTAT,0.44 kcal/mol
14,TAAAGCACGTGATGGA,0.05 kcal/mol
15,TATATCACGTGTGCAT,0.08 kcal/mol
16,AGTGCCACGTGTTAAT,0 kcal/mol
17,TTATCCACGTGATGGT,0.25 kcal/mol
18,CGTGTCACGTGGTGGG,0.05 kcal/mol
19,GTCGACACGTGGGGTA,-0.11 kcal/mol
20,CTCGCCACGTGGGGGT,-0.29 kcal/mol
21,CGGGTCACGTGCGGGT,0.07 kcal/mol
22,TGGTTCACGTGGCTCT,0.14 kcal/mol
23,TAGAGCACGTGTAAGA,0.06 kcal/mol
